Screen size: about 45,000 compounds; about 65 (0.1%) were called active. Calls follow the shape of the dose curve; as a rule, active = well fitted activation curve with a large enough effect; inconclusive = small, poorly fitted or top-dose-only effect; inactive = no such curve, though single readings can be large or run the other way. Some of the results follow.
Target: Galactocerebrosidase (Homo sapiens) (UniProt P54803)
Assay: A Novel Cell-Based Assay to Identify Small Molecules for B -Galactocerebrosidase; also: 0% is about no effect; nearly all actives have a fitted effect of over 65% in size
Conditions: 145M-Twi-hGALC-G270D cells (Twitcher mouse brain line with human GALC G270D), HMU-beta-Gal fluorescence, 48 h; series mostly up to 57.5 µM; activation: at the top concentration
Summary of the method: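 Mutant human GALC (G270D), stably expressed in a Twitcher mouse brain cell line lacking endogenous GALC, is measured in live-treated cells via 6-hexadecanoylamino-4-methylumbelliferyl-β-galactoside hydrolysis (0.1 mM final, pH 5.2) with fluorescent detection.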

UniProt P54803, sequence (P54803 whole entry, looked up): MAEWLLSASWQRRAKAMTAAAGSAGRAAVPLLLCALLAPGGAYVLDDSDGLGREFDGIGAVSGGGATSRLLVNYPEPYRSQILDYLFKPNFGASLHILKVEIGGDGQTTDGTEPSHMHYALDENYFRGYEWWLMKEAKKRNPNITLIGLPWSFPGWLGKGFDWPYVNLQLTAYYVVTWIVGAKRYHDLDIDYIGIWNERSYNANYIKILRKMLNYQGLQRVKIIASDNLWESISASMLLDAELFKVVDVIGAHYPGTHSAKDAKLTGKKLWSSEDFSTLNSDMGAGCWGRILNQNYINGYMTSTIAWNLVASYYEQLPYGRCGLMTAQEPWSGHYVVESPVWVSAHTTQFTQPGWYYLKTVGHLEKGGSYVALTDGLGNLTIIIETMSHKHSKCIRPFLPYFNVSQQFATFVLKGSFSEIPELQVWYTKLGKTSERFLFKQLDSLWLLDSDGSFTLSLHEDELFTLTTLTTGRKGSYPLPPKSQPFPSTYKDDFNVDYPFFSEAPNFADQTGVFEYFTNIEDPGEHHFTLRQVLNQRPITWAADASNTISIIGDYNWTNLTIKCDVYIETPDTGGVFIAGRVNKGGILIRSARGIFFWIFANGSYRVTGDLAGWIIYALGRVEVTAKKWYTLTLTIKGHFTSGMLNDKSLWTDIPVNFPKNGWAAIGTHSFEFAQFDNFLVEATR

activation, inactive:
O=C1CC(c2cccc(O)c2)c2cc3c(cc2N1)OCO3 (configuration not stated) -13.8%
CCCC(=O)c1cc(O)c(O)cc1O -10% [at 114 µM]
CCN(CC)CCn1c(-c2ccccc2)csc1=Nc1ccccc1 -15%
Cc1ccc(-n2ncc3c(N(CC(C)C)CC(C)C)ncnc32)c(C)c1 -13.9%
CC(C)S(=O)(=O)c1oc(-c2cccs2)nc1S(=O)(=O)c1ccc(F)cc1 -3.55%
Cc1ccc(NC(=O)c2c(C)oc3ccc(O)c(CN4CCCCCC4)c23)cc1 -14%
Cc1c(CC(=O)NCCc2ccccc2F)c(=O)oc2cc(O)c(Cl)cc12 -19.3%
O=C(COc1ccccc1[N+](=O)[O-])N1CCC(c2nc3ccccc3o2)CC1 -13.2%
Cn1cc(-c2cc3n(n2)CCC(=O)N3CC(=O)NCc2ccc(Cl)cc2)c2ccccc21 -20.5%
Cc1ccc(CCNC(=O)c2c(C)oc3nc(C)nc(N4CCOCC4)c23)cc1 -7.62%
CCN(CCCNC(=O)c1cc(Nc2ccc(OC)cc2OC)nc2ccccc12)c1cccc(C)c1 -37.4%
CCOCCCNC(=O)c1c(NC(=O)c2cc(=O)c3ccccc3o2)sc2c1CCC2 -14.1%
COc1ccccc1N1CCN(C(=O)Nc2cn(CC(C)C)c(=O)c3ccccc23)CC1 -24.1%
O=c1oc2c(CN3CCCC3)c(O)ccc2cc1-c1ccccc1 -20.4%
CC(C)C(=O)Nc1cccc(C(=O)Nc2nnc(CC(C)(C)C)s2)c1 -5.46%
Cc1ccc(S(=O)(=O)C(CNC(=O)Cc2ccc(Cl)cc2)c2cccs2)cc1 (configuration not stated) -7.98%
CCc1ccccc1NC(=O)c1cc2nc(-c3ccc(OC)c(OC)c3)cc(C(F)(F)F)n2n1 -12.5%
Cc1cccc(Cn2c(=O)n(Cc3ccc4c(c3)OCO4)c(=O)c3oc4ccccc4c32)c1 -29.4%
CCOc1ccc(CNC(=O)c2ccc3c(c2)nnn3C2CCCC2)cc1 -5.07%
Cc1ccc2c(=O)cc(C(=O)Nc3c(C(=O)Nc4cccc(Cl)c4)oc4ccccc34)oc2c1 -8.02%
O=C(Nc1ccc(C(=O)OCc2cc(=O)n3c4c(sc3n2)CCCC4)cc1)c1ccc(Cl)cc1 -7.47%
CC(C)c1ccc(NC(=O)Nc2csc3c2CCCC3)cc1 -38.2%
COc1ccc(NC(=O)c2c(NCc3cccs3)sc3c2CCCC3)cc1 -10%
CCCCN(C)CC(O)Cn1cc(/C=C/C(=O)c2ccc(C)cc2)c2ccccc21 (configuration not stated) -1.13%
COC(=O)c1ccc(NC(=O)Cn2c(=O)nc(-c3ccccc3)c3ccccc32)cc1 -7.73%
CCOC(=O)c1ccc(NC(=O)Cn2ncc3c(C)n(Cc4ccccc4F)c(C)c3c2=O)cc1 -6.89%
COc1cc2ccccc2cc1C(=O)Nc1ccc2oc(-c3ccc(Cl)cc3)nc2c1 -11.2%
Cc1ccc(N2C(=O)CSC23C(=O)N(CC(=O)NC2CCCCC2)c2ccccc23)cc1C (configuration not stated) -16.9%
Cn1cc(C(c2ccccc2)c2ccc(Cl)s2)c2ccccc21 (configuration not stated) -11%
CCOc1cccc(NC(=O)C2CC(=O)N(C)C(=Nc3ccc(F)cc3)S2)c1 (configuration not stated) -14.7%
CCOc1ccccc1NC(=O)CN1C(=O)COc2ccc(S(=O)(=O)N3CCCCC3)cc21 -11.6%
O=C(c1ccc(Br)s1)N(Cc1cccnc1)c1nc2ccc(F)cc2s1 -14.9%
Cc1ccc2nc(COc3ccccc3NC(=O)COc3ccccc3Cl)cc(=O)n2c1 -0.648%
Cc1ccc(CNC(=O)C2CCN(S(=O)(=O)c3c(C)noc3/C=C/c3c(C)cc(C)cc3C)CC2)cc1 -14%
CSc1ncc(C(=O)NCc2ccc(C)cc2)c(-c2ccccc2)n1 -12.9%
Oc1c(Br)cc(Br)c2cccnc12 -13.1%
CCOC(=O)c1c(C)oc2ncnc(Nc3cc(Cl)ccc3OC)c12 -12.4%
Nc1nc(=O)n([C@@H]2O[C@H](CO)[C@@H](O)[C@@H]2F)cc1I 1.43%
CCOc1ccc(C(=O)Nc2ccccc2OCc2cc(=O)n3ccccc3n2)cc1 -7.58%
Cc1cc(C(=O)Nc2cccc(F)c2)c2c(C)nn(-c3cccc(Cl)c3C)c2n1 -8.48%
CCc1nn(CC(=O)NCc2ccc(OC)c(OC)c2)c(=O)c2cc3sc(C)cc3n12 -18.7%
Cc1ccccc1C(=O)OCc1cc(=O)n2c(C)csc2n1 0.902%
CCCNC(=O)c1cnc2sc(N3CCCCCC3)nn2c1=O -12.6%
CCOC(=O)c1c(NC(=O)c2cc3nc(-c4ccccc4)cc(C(F)(F)F)n3n2)sc2c1CCC(C)C2 (configuration not stated) -17.8%
CCOC(=O)Cn1c(=O)n(-c2ccccc2OC)c2nc(-c3ccccc3F)nc(C(N)=O)c21 9.8%
COc1ccc(CCNC(=O)c2nc(SCc3ccc(C)cc3)ncc2Cl)cc1OC 6.36%
CCOC(=O)N1CCC(=C2c3ccc(Cl)cc3CCc3cccnc32)CC1 -9.41%
CN(C)c1ccc(C(=O)Nc2cccc(-c3nc4cccnc4s3)c2)cc1 -13.3%
COc1ccccc1OCCCCn1c(-c2ccc(Cl)cc2)nc2ccccc2c1=O -10.3%
COc1cccc(Cn2c(SCC(=O)N(C)c3ccccc3)nc3ccccc32)c1 -6.36%
COc1cccc2cc(-c3csc(-c4ccc(Cl)cc4)n3)c(=O)oc12 -12.6%
O=C(Nc1ccc(C(F)(F)F)cc1)C1CCN(c2cnccn2)CC1 -15.5%
Cc1ccc(CCNC(=O)c2cc(C)nc3c2c(C)nn3-c2ccc(C)cc2)cc1 -3.71%
CCc1ccc(-c2nn(CC(=O)NCc3ccccc3)c3c2cnc2ccc(C)cc23)cc1 -9.04%
CC(C)c1ccc(NC(=O)CCS(=O)(=O)c2cccc3nonc23)cc1 -6.57%
CCc1ccc(-n2nc(C)c3c(C(=O)Nc4cc(C)c(Cl)cc4OC)cc(C)nc32)cc1 -8.45%
CCCN(C(=O)COc1cc(=O)n(CC)c2ccccc12)c1ccc(C(C)C)cc1 -43.3%
CCOc1ccccc1NC(=O)Cn1c(=O)n(-c2ccc(F)cc2)c(=O)c2c3c(sc21)CN(C(C)=O)CC3 -17.8%
O=C(CN1CCSc2ccccc21)N1CCCCC1 -0.396%
Cc1ccc(CCNC(=O)c2ccc(CNS(=O)(=O)c3ccccc3)cc2)cc1 14.2%
Cc1ccccc1CNC(=O)c1ccc(CSc2nc3cccnc3n2Cc2ccccc2)cc1 -14.1%
COC(=O)c1ccc(Cn2c(SCc3ccccc3)nc3ccncc32)cc1 -9.61%
Cc1ccc(-c2nc(CS(=O)(=O)CC(=O)NCc3ccc(Cl)cc3)c(C)o2)cc1 -13.9%
CCc1ccc(-n2c(SCc3ccccc3C)nc3[nH]ncc3c2=O)cc1 -18.9%
CCOC(=O)c1c(NC(=O)/C(C#N)=C/c2ccccc2)sc2c1CCC2 -15.6%
COc1cc(NC(=O)Cn2cnc3c2c(=O)n(C)c(=O)n3C)c(OC)cc1Cl 3.45%
Cc1cc(C)cc(NC(=O)Nc2ccccc2OCc2cc(=O)n3ccccc3n2)c1 -15.9%
CC(=O)Nc1ccc(NC(=O)c2cc3sccc3n2Cc2ccc(Cl)cc2)cc1 -16.1%
CCOc1cc(/C=C(\C#N)C(=O)Nc2ccc(C)cc2)ccc1OCc1cc(=O)n2nc(CC)sc2n1 -4.75%
CCOc1ccccc1NC(=O)c1c(NCc2cccs2)sc2c1CCCCC2 -18.3%
CCn1c(C)c(C)c2cc(C(=O)NCc3ccc(OC)cc3OC)ccc21 -20%
CCN(CC)S(=O)(=O)c1ccc(NC(=O)c2c(C)oc3ncnc(N4CCOCC4)c23)cc1 -1.97%
CCc1c(C)sc2c1CCN(C(=O)Nc1cc(Cl)c(OC)cc1OC)C2c1ccccc1 (configuration not stated) -6.96%
CCC(=O)N1CCc2cc(CNS(=O)(=O)c3ccc(NC(=O)CC(C)C)cc3)ccc21 -6.08%
COc1cccc2c1Oc1ncccc1N(C(=O)CCC(=O)NC(C)C)C2 -2.3%
O=C(NOCC1CC1)c1ccc(F)c(F)c1Nc1ccc(I)cc1Cl -11.9%
C#CCn1cnc2c(cnn2-c2ccc(F)cc2)c1=O -18.4%
CCC(=O)N1CCc2cc(Br)cc(S(=O)(=O)CCC(=O)Nc3ccc(C)c(F)c3)c21 -8.57%
COc1ccc2c(c1)CC(C(=O)NCCCN1CCN(c3ccccc3F)CC1)CO2 (configuration not stated) -8.01%
CC(C)(C)c1ccc(C2=NC(C)(C)N(CC(=O)Nc3ccc(F)c(F)c3)C2=O)cc1 -0.334%
CCCNC(=O)C1CCN(Cc2cc3ccccc3n2Cc2ccccc2)CC1 -6.8%
COc1cc(C)ccc1OCCSc1nc2ccc(NC(=O)c3ccc(C)cc3)cc2s1 2.18%
CC1(C)CC(=O)c2cc(-c3nc(-c4ccc(Cl)cc4)cs3)c(=O)n(-c3cccc(F)c3)c2C1 6.95%
COc1ccccc1NC(=O)CCn1cnc2onc(-c3ccc(F)cc3)c2c1=O -9.01%
COc1ccccc1-c1noc(-c2ccc(NCc3cccnc3)c([N+](=O)[O-])c2)n1 -14.3%
CCCSc1nnc2c(n1)OC(c1ccc(OCC(=O)O)cc1)Nc1ccccc1-2 (configuration not stated) -1.99%
O=C(CN1C(=O)CC(c2ccco2)Sc2ccccc21)Nc1ccc(Br)cc1 (configuration not stated) -4.06%
COc1ccc(-c2ccc(CCC(=O)O)n2CC(=O)Nc2cccc(Cl)c2C)cc1 -10.6%
Cn1cc(C(=O)NCCc2ccccc2)c(=O)c2cc(S(=O)(=O)N3CCCCCC3)ccc21 -20.3%
Cc1c(C(=O)N(Cc2ccc(N(C)C)cc2)Cc2ccco2)oc2cc(Br)ccc12 -20.7%
COc1ccc(CNC(=O)CCc2c(C)nc3nc(CNC(=O)OC(C)(C)C)nn3c2C)cc1 -2.32%
CC(=O)c1cccc(Nc2nn(-c3ccc(OC(F)(F)F)cc3)nc2C(C)=O)c1 -10.8%
COc1cccc(C(c2sc3nc(-c4ccco4)nn3c2O)N2CCN(c3ccccc3F)CC2)c1 (configuration not stated) -26.3%
CCOc1ccc(N(C(C)C(=O)NCCSc2ccc(C)cc2)S(C)(=O)=O)cc1 (configuration not stated) -16.6%
CCCCn1cc(S(=O)(=O)c2ccc(CC)cc2)c(=O)c2cc(F)c(N3CCOCC3)cc21 -18.7%
Cc1cc(C)cc(NC(=O)C(=O)NCC(c2cccnc2)N2CCN(c3ccccc3)CC2)c1 (configuration not stated) -11.5%
COc1ccc(-n2ccn(Cc3ccccc3C)c(=O)c2=O)cc1 -15%

From PubChem BioAssay AID1159614 (National Center for Advancing Translational Sciences (NCATS), 2016)
